Assay results published in PubChem BioAssay (Tox21).
The shares of active, inactive and inconclusive entries below differ from those in the screen. Entries that show only a call come without a potency. Potencies of inconclusive entries are doubtful fits and often do not repeat. Calls of active or inactive are those of the source. Unless noted, calls follow the shape of the dose curve; as a rule, active = well fitted cell-killing curve with a large enough effect in the repeat runs; inconclusive = weak or mixed curves, or effect the other way; inactive = no such curve, though single readings can be large or run the other way.
Potency is read from the fitted curve at half-maximal effect; tags tell the direction and shape of the fitted curve or compound fluorescence and quenching.

Molecular target: Glucocorticoid receptor (Homo sapiens) (UniProt P04150)
UniProt P04150, sequence (P04150 whole entry, looked up): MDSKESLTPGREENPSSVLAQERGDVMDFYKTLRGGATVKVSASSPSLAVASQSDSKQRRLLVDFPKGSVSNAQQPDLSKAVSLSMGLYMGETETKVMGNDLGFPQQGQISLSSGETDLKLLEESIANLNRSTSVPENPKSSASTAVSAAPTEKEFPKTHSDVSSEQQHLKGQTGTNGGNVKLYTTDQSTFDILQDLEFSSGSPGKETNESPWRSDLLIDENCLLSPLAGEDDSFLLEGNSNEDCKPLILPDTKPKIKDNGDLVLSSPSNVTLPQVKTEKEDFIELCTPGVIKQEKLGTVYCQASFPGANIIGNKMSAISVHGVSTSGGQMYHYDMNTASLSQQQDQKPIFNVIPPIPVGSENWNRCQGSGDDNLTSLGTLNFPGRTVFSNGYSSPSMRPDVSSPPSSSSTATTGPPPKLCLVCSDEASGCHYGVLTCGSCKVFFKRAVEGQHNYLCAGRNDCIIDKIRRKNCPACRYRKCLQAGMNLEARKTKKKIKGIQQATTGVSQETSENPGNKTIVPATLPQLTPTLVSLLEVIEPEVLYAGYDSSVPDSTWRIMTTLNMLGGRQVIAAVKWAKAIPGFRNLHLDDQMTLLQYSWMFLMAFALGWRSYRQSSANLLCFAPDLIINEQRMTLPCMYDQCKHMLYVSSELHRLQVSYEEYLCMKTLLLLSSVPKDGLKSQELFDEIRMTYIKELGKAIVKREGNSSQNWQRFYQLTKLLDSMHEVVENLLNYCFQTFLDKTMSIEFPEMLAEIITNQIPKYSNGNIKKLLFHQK
Assay: qHTS assay to identify small molecule antagonists of the glucocorticoid receptor (GR) signaling pathway (AID 720692; active = well fitted inhibition curve with a large enough effect in the signal ratio in the repeat runs, not every such curve was filed as active; inconclusive = weak or mixed curves, or effect the other way; inactive = no such curve, though single readings can be large or run the other way; the % refers to the signal ratio)
Details: GR-bla HeLa, beta-lactamase FRET ratio, dexamethasone-stimulated, 18 h; activity change, negative = inhibition: at 58.5 µM (top of the series) unless noted
Summary of the method: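 Tox21 10K library screened in concentration-response for blockade of dexamethasone (5 nM final)-induced GRE-bla reporter activity in HeLa cells; 18 h treatment, fluorescence read.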
With `Cc1ccc(OC(=O)CC(C)C)cc1` the Potency was inconclusive: 54.9 µM [activator, single point]. In the case of `c1ccc(SSc2ccccc2)cc1`, the activity change, negative = inhibition is reported as inconclusive: 19.5% [at 78.9 µM]. For `O=C(O)CNCC(=O)O`, the activity change, negative = inhibition was inconclusive: -14.1% [at 7.04 µM]. For `CCCCCCCCCCCCCCN(C)C`, the Potency was “inactive”. With `CCNCCO` the Potency was “inactive”. With `CCCCCCC` the activity change, negative = inhibition was inconclusive: 15.2% [at 78.9 µM]. In the case of `Cc1ccc(S(=O)(=O)O)cc1C`, the Potency is reported as “inactive”. In the case of `CCCO`, the Potency is reported as “inactive”. For `O=C(CS(=O)Cc1ccco1)NC/C=C\COc1cc(CN2CCCCC2)ccn1` (configuration not stated), the Potency was “inactive”. In the case of `COc1ccc2[nH]c(S(=O)Cc3ncc(C)c(OC)c3C)nc2n1` (configuration not stated), the Potency is reported as “inactive”. With `CCOC(=O)CC(O)(CC(=O)OCC)C(=O)OCC` the Potency was “inactive”. For `Cc1c(N=C=O)cccc1N=C=O`, the Potency was “inactive”. For `N[C@@H](Cc1cc(I)c(O)c(I)c1)C(=O)O`, the Potency was “inactive”. In the case of `Clc1ccc(Cl)c(Cl)c1Cl`, the activity change, negative = inhibition is reported as inconclusive: 0.0102%. For `Nc1nc2c(ncn2COCCO)c(=O)[nH]1`, the Potency was “inactive”. With `CN(C)C(C)(C)CO` the Potency was “inactive”. For `CC/C=C/CCO`, the activity change, negative = inhibition was inconclusive: -2.44% [at 78.9 µM]. For `Nc1ccn([C@@H]2O[C@H](CO)[C@@H](O)C2O)c(=O)n1` (some centres not stated), the Potency was inconclusive: 0.977 µM [activator, partial curve] and the activity change, negative = inhibition was inconclusive: 11.2%. With `Cc1cccc(C(=O)O)c1O` the Potency was inconclusive: 26.8 µM [cytotoxic, single point]. With `C=CC(C)(CCC=C(C)C)OC(=O)CC` (configuration not stated) the Potency was “inactive”. For `CC[C@H]1OC(=O)[C@H](C)[C@@H](O[C@H]2C[C@@](C)(OC)[C@@H](O)[C@H](C)O2)[C@H](C)[C@@H](O[C@@H]2O[C@H](C)C[C@H](N(C)C)[C@H]2O)[C@](C)(O)C[C@@H](C)/C(=N\OCOCCOC)[C@H](C)[C@@H](O)[C@]1(C)O`, the activity change, negative = inhibition was inconclusive: -4.06%. For `CCCCCC1Nc2cc(C(F)(F)F)c(S(N)(=O)=O)cc2S(=O)(=O)N1` (configuration not stated), the Potency was “inactive”. With `C=CCn1c(=O)n(CC=C)c(=O)n(CC=C)c1=O` the Potency was inconclusive: 43.5 µM [activator, partial curve, poor fit]. For `O=C1CC[C@@H](C(=O)O)N1`, the activity change, negative = inhibition was inconclusive: -3.23%. In the case of `COC(=O)CC(=O)OC`, the Potency is reported as “inactive”. For `NC(=O)NNc1ccccc1`, the Potency was “inactive”. For `COC(=O)c1ccccc1OC`, the Potency was inconclusive: 54.9 µM [activator, partial curve, poor fit]. In the case of `CCCCCCCCCC(=O)O`, the Potency is reported as inconclusive: 6.74 µM [inhibitor, full curve] and the activity change, negative = inhibition is reported as inconclusive: -32%.

System: not listed separately
Assay: qHTS assay to identify small molecule antagonists of the glucocorticoid receptor (GR) signaling pathway - cell viability counter screen (AID 720693); also: nearly all actives have a fitted effect of over 55% in size
Details: GR-bla HeLa viability, CellTiter-Glo luminescence, 18 h, with 5 nM dexamethasone present; viability change, negative = cytotoxic: at 58.5 µM (top of the series)
With `c1ccc(SSc2ccccc2)cc1` the Potency was “inactive”. In the case of `O=C(O)CNCC(=O)O`, the viability change, negative = cytotoxic is reported as inactive: -8.93% [at 7.04 µM]. For `Cc1ccc(S(=O)(=O)O)cc1C`, the Potency was “inactive”. With `CCCO` the Potency was “inactive”. For `O=C(O)CNC(=O)c1ccc([N+](=O)[O-])cc1`, the Potency was “inactive”. With `CC(C)NC[C@@H](O)COc1ccc(CC(N)=O)cc1` the Potency was “inactive”. For `CCCCC(CC)COCCCN` (configuration not stated), the Potency was inconclusive: 1.93 µM [rising, single point]. For `Cn1c(N)c(N=O)c(=O)n(C)c1=O`, the Potency was “inactive”. In the case of `CC/C=C/CCO`, the Potency is reported as “inactive”. In the case of `Cc1cccc(C(=O)O)c1O`, the Potency is reported as inconclusive: 26.8 µM [cytotoxic, single point]. For `O=C(O)c1cccc(Oc2ccccc2)c1`, the Potency was “inactive”. For `CCC(C)C=O` (configuration not stated), the Potency was “inactive”. For `Cc1cc(=O)n(-c2ccccc2)n1C`, the Potency was “inactive”. For `CC1(C)CC(O)CC(C)(C)N1`, the Potency was “inactive”. For `O=c1cc(O)c(Cl)c[nH]1`, the Potency was “inactive”. With `Cc1cccc2cccnc12` the Potency was inconclusive: 61.2 µM [rising, single point]. For `CS(=O)(=O)c1ccc([C@@H](C[C@H]2CCC(=O)C2)C(=O)Nc2cnccn2)cc1Cl`, the Potency was “inactive”.
